Publication PMC12820563
Some of the results follow. The list includes weakly bound sequences.

Target: T1, MBP-FoxP3dN (UniProt Q99JB6)
T1 sequence: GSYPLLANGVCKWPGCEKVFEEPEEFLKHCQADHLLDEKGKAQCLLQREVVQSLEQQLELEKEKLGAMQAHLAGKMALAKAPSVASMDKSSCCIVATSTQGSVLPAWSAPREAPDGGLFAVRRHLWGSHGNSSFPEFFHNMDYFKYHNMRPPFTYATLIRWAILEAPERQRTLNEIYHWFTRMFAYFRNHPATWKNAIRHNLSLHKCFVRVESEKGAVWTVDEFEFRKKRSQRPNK
Test: PD-seq (MBP pull-down with sequencing)
Conditions: 20 mM Tris-HCl pH 7.5, 100 mM NaCl, 1.5 mM MgCl2, 0.4 uM protein, 0.1 uM dsDNA library, 30 min, room temperature, amylose pull-down; high values mean tight binding; double strand, one strand shown

Sequence | binding signal (RPM ratio (pull-down/input))
GATGATTGTTCTCCCAGCTGATGAATTACCCGGGTCGAGTAAACAAATTTTCCTAATCTTTCTGTTCAAGCGCCATCTAC | 0.174
GATGATTGTTCTCCCAGCTGATGAATTGAGGACATCGAGTAAACAAATTTTCCTAATCTTTCTGTTCAAGCGCCATCTAC | 0.395
GATGATTGTTCTCCCAGCTGATGAATTTCGACCGTCGAGTAAACAAATTTTCCTAATCTTTCTGTTCAAGCGCCATCTAC | 0.402
GATGATTGTTCTCCCAGCTGATGAATTCTCCGCATCGAGTAAACAAATTTTCCTAATCTTTCTGTTCAAGCGCCATCTAC | 0.8
GATGATTGTTCTCCCAGCTGATGAATTGTCGCTGTCGAGTAAACAAATTTTCCTAATCTTTCTGTTCAAGCGCCATCTAC | 0.566
GATGATTGTTCTCCCAGCTGATGAATTCTGTGGATCGAGTAAACAAATTTTCCTAATCTTTCTGTTCAAGCGCCATCTAC | 1.34
GATGATTGTTCTCCCAGCTGATGAATTGACACCGTCGAGTAAACAAATTTTCCTAATCTTTCTGTTCAAGCGCCATCTAC | 0.436
GATGATTGTTCTCCCAGCTGATGAATTTAGACAGTCGAGTAAACAAATTTTCCTAATCTTTCTGTTCAAGCGCCATCTAC | 0.418
GATGATTGTTCTCCCAGCTGATGAATTCATTTCATCGAGTAAACAAATTTTCCTAATCTTTCTGTTCAAGCGCCATCTAC | 0.425
GATGATTGTTCTCCCAGCTGATGAATTAGTGCAGTCGAGTAAACAAATTTTCCTAATCTTTCTGTTCAAGCGCCATCTAC | 0.901
GATGATTGTTCTCCCAGCTGATGAATTGCATGCTTCGAGTAAACAAATTTTCCTAATCTTTCTGTTCAAGCGCCATCTAC | 2.33
GATGATTGTTCTCCCAGCTGATGAATTGTTTTTTTCGAGTAAACAAATTTTCCTAATCTTTCTGTTCAAGCGCCATCTAC | 4.84
GATGATTGTTCTCCCAGCTGATGAATTAAGGCTGTCGAGTAAACAAATTTTCCTAATCTTTCTGTTCAAGCGCCATCTAC | 0.532
GATGATTGTTCTCCCAGCTGATGAATTAGGGGGATCGAGTAAACAAATTTTCCTAATCTTTCTGTTCAAGCGCCATCTAC | 0.395
GATGATTGTTCTCCCAGCTGATGAATTGCGGCCCTCGAGTAAACAAATTTTCCTAATCTTTCTGTTCAAGCGCCATCTAC | 0.884
GATGATTGTTCTCCCAGCTGATGAATTCTGAGCCTCGAGTAAACAAATTTTCCTAATCTTTCTGTTCAAGCGCCATCTAC | 0.516
GATGATTGTTCTCCCAGCTGATGAATTACCCGTTTCGAGTAAACAAATTTTCCTAATCTTTCTGTTCAAGCGCCATCTAC | 0.334
GATGATTGTTCTCCCAGCTGATGAATTAGTTGCGTCGAGTAAACAAATTTTCCTAATCTTTCTGTTCAAGCGCCATCTAC | 3.34
GATGATTGTTCTCCCAGCTGATGAATTTTTCAACTCGAGTAAACAAATTTTCCTAATCTTTCTGTTCAAGCGCCATCTAC | 0.287
GATGATTGTTCTCCCAGCTGATGAATTCCCCCATTCGAGTAAACAAATTTTCCTAATCTTTCTGTTCAAGCGCCATCTAC | 0.264
GATGATTGTTCTCCCAGCTGATGAATTTGAGCCCTCGAGTAAACAAATTTTCCTAATCTTTCTGTTCAAGCGCCATCTAC | 0.434

Sequence | binding signal (RPM ratio (pull-down/input))
GATGATTGTTCTCCCAGCTGATGAATTCATCGTATCGAGTAAACAAATTTTCCTAATCTTTCTGTTCAAGCGCCATCTAC | 0.859
GATGATTGTTCTCCCAGCTGATGAATTTTGGTAGTCGAGTAAACAAATTTTCCTAATCTTTCTGTTCAAGCGCCATCTAC | 0.754
GATGATTGTTCTCCCAGCTGATGAATTTGTTTTGTCGAGTAAACAAATTTTCCTAATCTTTCTGTTCAAGCGCCATCTAC | 7.57
GATGATTGTTCTCCCAGCTGATGAATTAGTAGGTTCGAGTAAACAAATTTTCCTAATCTTTCTGTTCAAGCGCCATCTAC | 1.09
GATGATTGTTCTCCCAGCTGATGAATTTGCCTGCTCGAGTAAACAAATTTTCCTAATCTTTCTGTTCAAGCGCCATCTAC | 1.31
GATGATTGTTCTCCCAGCTGATGAATTCAATAGCTCGAGTAAACAAATTTTCCTAATCTTTCTGTTCAAGCGCCATCTAC | 0.877
GATGATTGTTCTCCCAGCTGATGAATTCCAGCTGTCGAGTAAACAAATTTTCCTAATCTTTCTGTTCAAGCGCCATCTAC | 0.355
GATGATTGTTCTCCCAGCTGATGAATTTAGGCAGTCGAGTAAACAAATTTTCCTAATCTTTCTGTTCAAGCGCCATCTAC | 0.47
GATGATTGTTCTCCCAGCTGATGAATTGGGGTACTCGAGTAAACAAATTTTCCTAATCTTTCTGTTCAAGCGCCATCTAC | 0.652
GATGATTGTTCTCCCAGCTGATGAATTATTATTTTCGAGTAAACAAATTTTCCTAATCTTTCTGTTCAAGCGCCATCTAC | 1.61
GATGATTGTTCTCCCAGCTGATGAATTAAGTCAATCGAGTAAACAAATTTTCCTAATCTTTCTGTTCAAGCGCCATCTAC | 0.346
GATGATTGTTCTCCCAGCTGATGAATTAGGTATCTCGAGTAAACAAATTTTCCTAATCTTTCTGTTCAAGCGCCATCTAC | 3.33
GATGATTGTTCTCCCAGCTGATGAATTTCAGGAGTCGAGTAAACAAATTTTCCTAATCTTTCTGTTCAAGCGCCATCTAC | 0.214
GATGATTGTTCTCCCAGCTGATGAATTGAGAGTCTCGAGTAAACAAATTTTCCTAATCTTTCTGTTCAAGCGCCATCTAC | 1.06
GATGATTGTTCTCCCAGCTGATGAATTAGGGGAATCGAGTAAACAAATTTTCCTAATCTTTCTGTTCAAGCGCCATCTAC | 0.219
GATGATTGTTCTCCCAGCTGATGAATTGCTGGTTTCGAGTAAACAAATTTTCCTAATCTTTCTGTTCAAGCGCCATCTAC | 0.923
GATGATTGTTCTCCCAGCTGATGAATTCTGGCTGTCGAGTAAACAAATTTTCCTAATCTTTCTGTTCAAGCGCCATCTAC | 0.332
GATGATTGTTCTCCCAGCTGATGAATTGCAGCTCTCGAGTAAACAAATTTTCCTAATCTTTCTGTTCAAGCGCCATCTAC | 0.924
GATGATTGTTCTCCCAGCTGATGAATTTGCGCGGTCGAGTAAACAAATTTTCCTAATCTTTCTGTTCAAGCGCCATCTAC | 0.709
GATGATTGTTCTCCCAGCTGATGAATTATCCTTTTCGAGTAAACAAATTTTCCTAATCTTTCTGTTCAAGCGCCATCTAC | 0.278
GATGATTGTTCTCCCAGCTGATGAATTAGTCCTTTCGAGTAAACAAATTTTCCTAATCTTTCTGTTCAAGCGCCATCTAC | 0.643

Sequence | binding signal (RPM ratio (pull-down/input))
GATGATTGTTCTCCCAGCTGATGAATTTCTGGGGTCGAGTAAACAAATTTTCCTAATCTTTCTGTTCAAGCGCCATCTAC | 0.205
GATGATTGTTCTCCCAGCTGATGAATTGCGACTATCGAGTAAACAAATTTTCCTAATCTTTCTGTTCAAGCGCCATCTAC | 1.49
GATGATTGTTCTCCCAGCTGATGAATTGTCCCACTCGAGTAAACAAATTTTCCTAATCTTTCTGTTCAAGCGCCATCTAC | 0.402
GATGATTGTTCTCCCAGCTGATGAATTCCTTATCTCGAGTAAACAAATTTTCCTAATCTTTCTGTTCAAGCGCCATCTAC | 0.277
GATGATTGTTCTCCCAGCTGATGAATTTAACCGCTCGAGTAAACAAATTTTCCTAATCTTTCTGTTCAAGCGCCATCTAC | 0.298
GATGATTGTTCTCCCAGCTGATGAATTGGTAAGGTCGAGTAAACAAATTTTCCTAATCTTTCTGTTCAAGCGCCATCTAC | 0.342
GATGATTGTTCTCCCAGCTGATGAATTTAGTTCTTCGAGTAAACAAATTTTCCTAATCTTTCTGTTCAAGCGCCATCTAC | 1.07
GATGATTGTTCTCCCAGCTGATGAATTGCCACGCTCGAGTAAACAAATTTTCCTAATCTTTCTGTTCAAGCGCCATCTAC | 0.867
GATGATTGTTCTCCCAGCTGATGAATTGTCAAGATCGAGTAAACAAATTTTCCTAATCTTTCTGTTCAAGCGCCATCTAC | 0.243
GATGATTGTTCTCCCAGCTGATGAATTCCCCTCATCGAGTAAACAAATTTTCCTAATCTTTCTGTTCAAGCGCCATCTAC | 0.34
GATGATTGTTCTCCCAGCTGATGAATTAGTGGACTCGAGTAAACAAATTTTCCTAATCTTTCTGTTCAAGCGCCATCTAC | 1.19
GATGATTGTTCTCCCAGCTGATGAATTCACGAACTCGAGTAAACAAATTTTCCTAATCTTTCTGTTCAAGCGCCATCTAC | 0.244
GATGATTGTTCTCCCAGCTGATGAATTGAAATCATCGAGTAAACAAATTTTCCTAATCTTTCTGTTCAAGCGCCATCTAC | 0.494
GATGATTGTTCTCCCAGCTGATGAATTTTAACGTTCGAGTAAACAAATTTTCCTAATCTTTCTGTTCAAGCGCCATCTAC | 0.511
GATGATTGTTCTCCCAGCTGATGAATTTAGCTAATCGAGTAAACAAATTTTCCTAATCTTTCTGTTCAAGCGCCATCTAC | 0.352
GATGATTGTTCTCCCAGCTGATGAATTTGTCCGTTCGAGTAAACAAATTTTCCTAATCTTTCTGTTCAAGCGCCATCTAC | 1.78
GATGATTGTTCTCCCAGCTGATGAATTGGTGGTGTCGAGTAAACAAATTTTCCTAATCTTTCTGTTCAAGCGCCATCTAC | 1.87
GATGATTGTTCTCCCAGCTGATGAATTATAACATTCGAGTAAACAAATTTTCCTAATCTTTCTGTTCAAGCGCCATCTAC | 0.994
GATGATTGTTCTCCCAGCTGATGAATTGAAACGCTCGAGTAAACAAATTTTCCTAATCTTTCTGTTCAAGCGCCATCTAC | 0.309
GATGATTGTTCTCCCAGCTGATGAATTAAAGTCTTCGAGTAAACAAATTTTCCTAATCTTTCTGTTCAAGCGCCATCTAC | 0.349
GATGATTGTTCTCCCAGCTGATGAATTTCGAGAGTCGAGTAAACAAATTTTCCTAATCTTTCTGTTCAAGCGCCATCTAC | 0.264
